This note sets out measurements from the RNAGym collection of RNA variant scans (doi:10.1073/pnas.2313332121).

B1: TPR 5TU (parent)
chain: GGAUCUUCUCGAUCUAACAAAAAAGACAAAUCUGCCACAAAGCUUGAGAGCAUCUUCGGAUGCAGAGGCGGCAGCCUUCGGUGGCGCGAUAGCGCCAACGUUCUCAACUAUGACACGCAAAACGCGUGCUCCGUUGAAUGGAGUUUAUCAUG

Variants at the background level are over-represented here.

The variants in the data set derive from B1. Briefly: polymerase ribozyme fitness, log enrichment relative to wild type (log ratio); higher = more active; in vitro selection for triplet polymerase activity. The procedure, abridged: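 A heterodimeric triplet polymerase ribozyme had each of its subunits mutagenized by PCR into a library, which was transcribed. One round of in vitro selection, done in triplicate, annealed each library with a biotinylated primer, its partner subunit and triplets, then incubated it frozen at −7 °C before gel excision of extended constructs, streptavidin-bead capture and RT-PCR. Fitness is the logarithm of genotype enrichment relative to wild-type enrichment, based on Illumina sequencing of inputs and outputs and inverse-variance-weighted replicate averages. A base-2 logarithm is used, and genotypes were kept only with ≥10 input reads and ≥1 read per output.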
For the variant U9A G68C U78A, the “polymerase ribozyme fitness (log ratio)” value is no more than -4.2.

C8U G11A G84A A89G: the “polymerase ribozyme fitness (log ratio)” value was no more than -4.2.

On to U9C C38U A73U G84A, for which the “polymerase ribozyme fitness (log ratio)” value is no more than -4.2.

In the case of C8U C85U A89U U90G G117C U146A A147U, the “polymerase ribozyme fitness (log ratio)” value was no more than -4.2. Take U9C A47C G83A: the “polymerase ribozyme fitness (log ratio)” value is no more than -4.2.

Consider C10A A24U A52G U55A C93U C116U, for which the “polymerase ribozyme fitness (log ratio)” value is no more than -4.2.

U9G A40C U146G: the “polymerase ribozyme fitness (log ratio)” value was no more than -4.2. Consider C8U C36A U45C G117C, for which the “polymerase ribozyme fitness (log ratio)” value was no more than -4.2. For U9C U15G C93G U151A the value was no more than -4.2; for U9A A29U A47G A64G C93G U139G U148A, no more than -4.2; for U9C C57A A91C G94A C105G A106G, no more than -4.2.

Take U9G A29G C95U G112U C116A C125A G141A U151G: the “polymerase ribozyme fitness (log ratio)” value was no more than -4.2. For the variant U9A C38U U56A C85U A89G U111A C114U C125A U134G A142G, the “polymerase ribozyme fitness (log ratio)” value was no more than -4.2. With U9A A26U A39U C75A G84U U135A G143U A147C, the “polymerase ribozyme fitness (log ratio)” value is no more than -4.2. For C8U A60U C85U C131U the value was no more than -4.2; for U9G G11U C14G A41C G48A C85U G143C, no more than -4.2; for C8U C36A G48A C87A, no more than -4.2. For U9G C18U C54G G67U G83U C108A G117A U148C A150C, the “polymerase ribozyme fitness (log ratio)” value is no more than -4.2. Take U9C A16G A17U C63A G88A C93U: the “polymerase ribozyme fitness (log ratio)” value is no more than -4.2. To U9G C79U G83C A97U belongs no more than -4.2. To U9G C69A C93G C96A A98G belongs no more than -4.2. Consider C10A A23C C51A U56A C57G G74A C103G C118U, for which the “polymerase ribozyme fitness (log ratio)” value was no more than -4.2.

With U9G A19U A20U A24G C57U C79A U90A A122G C132U, the “polymerase ribozyme fitness (log ratio)” value was no more than -4.2.

Consider U9C A52U G74U G88A A89G U111G A113G U145C, for which the “polymerase ribozyme fitness (log ratio)” value is no more than -4.2. For U9G C38A G86C C108A A122C A150C, the “polymerase ribozyme fitness (log ratio)” value is no more than -4.2. Consider C8U U134A, for which the “polymerase ribozyme fitness (log ratio)” value is no more than -4.2.

As for C8U C14U A91G U109G, the “polymerase ribozyme fitness (log ratio)” value is no more than -4.2.

Regarding U9C U53A A91G, the “polymerase ribozyme fitness (log ratio)” value is no more than -4.2. For C8U G50A C95A C103A C149G the value was no more than -4.2; for C8U G58C A60C C85G A97G U148A, no more than -4.2; for U9G U45C A52C A121G U145G, no more than -4.2. To C8U C35A G67U belongs no more than -4.2. In the case of C10A C116A C118U U148A, the “polymerase ribozyme fitness (log ratio)” value was no more than -4.2. Take U9C U45G U53A C95U C103G: the “polymerase ribozyme fitness (log ratio)” value is no more than -4.2. Regarding U9A A40C C96A A97C C108U, the “polymerase ribozyme fitness (log ratio)” value is no more than -4.2. U9A G50A U82G G83A A98G C99U G124C U134G: the “polymerase ribozyme fitness (log ratio)” value is no more than -4.2. For U9A A22G A23U C27A G71U G83C C108A U145A, the “polymerase ribozyme fitness (log ratio)” value was no more than -4.2. For U9A C93A A106G the value was no more than -4.2; for C8U A21C A23G A91G A142C, no more than -4.2. For U9C G84A C118U the value was no more than -4.2; for U9A G83U A89U A91G, no more than -4.2. To U9A G25U C35G G58C U82C C85G G126U U134A A147C belongs no more than -4.2; to U9G A39U C85G, no more than -4.2. U9A U53G A91C C95U U127G: the “polymerase ribozyme fitness (log ratio)” value was no more than -4.2. As to U9A A19C G70A C93U A119C A121U, the “polymerase ribozyme fitness (log ratio)” value is no more than -4.2. Turning to U9G C85G C87U A110G, the “polymerase ribozyme fitness (log ratio)” value was no more than -4.2. On to U9G A21C A73G G84U C87A, for which the “polymerase ribozyme fitness (log ratio)” value was no more than -4.2. For C8U A24G U61G G70A G92U C132G the value was no more than -4.2; for U9A A30G A40G G83C, no more than -4.2; for U9G A30C U33A G42A U45A G48C A52G G81A G117A, no more than -4.2. As for U9G C32A G48A C54U C95U C149A, the “polymerase ribozyme fitness (log ratio)” value is no more than -4.2. For U9A G11C A73G C87U U102A, the “polymerase ribozyme fitness (log ratio)” value is no more than -4.2. With U9G G11A A20G C43G G46A G58C G62C C116U U145G, the “polymerase ribozyme fitness (log ratio)” value was no more than -4.2. Consider U9G A17G A24U A30G G42C C43A G59U C95U U102C U135G, for which the “polymerase ribozyme fitness (log ratio)” value was no more than -4.2. For U9C G62C C79U C108G U109G A120C A150C the value was no more than -4.2; for U9C C75U A91U U135C, no more than -4.2; for C10A A28U U53A C69A G80A A89C G126C, no more than -4.2. As to U9C G88A U104G G143C, the “polymerase ribozyme fitness (log ratio)” value is no more than -4.2. Regarding C10A C54U G71U G94C U102A A142U A147C C149U, the “polymerase ribozyme fitness (log ratio)” value is no more than -4.2.

For the variant U9G C18U G67U G80C G83A U102G A106C A142G, the “polymerase ribozyme fitness (log ratio)” value was no more than -4.2. C10A A40C U53A G68A G81A G92A: the “polymerase ribozyme fitness (log ratio)” value is no more than -4.2.

As for C10A C43U C72U C93G C95U, the “polymerase ribozyme fitness (log ratio)” value is no more than -4.2. With U9A A21U A40U G42C C85A U146G, the “polymerase ribozyme fitness (log ratio)” value is no more than -4.2.

As for U9A C18G A23C C35A G83C, the “polymerase ribozyme fitness (log ratio)” value was no more than -4.2. To U9C A16U U56A C76A C85A A91U C99G A119U belongs no more than -4.2; to C8U A23G G50A C95U A147C, no more than -4.2. For U9C G25A C38U U78A U90C G92U C95U A121G the value was no more than -4.2; for U9A C14G C27G U44C A64G C96U U101G A138C, no more than -4.2.

Consider C8U A37G G42C C63U G94C A122G C131A, for which the “polymerase ribozyme fitness (log ratio)” value is no more than -4.2. As to U9G U82C G94A, the “polymerase ribozyme fitness (log ratio)” value was no more than -4.2. To C8U A26U A49G A73C A91G A121U belongs no more than -4.2; to U9G U33G G42U G65C A73U C96U U151A, no more than -4.2.

Take C8U U55A G81A C93G U144G: the “polymerase ribozyme fitness (log ratio)” value is no more than -4.2. For U9G A16U A26C A60C C87A C99A U104A the value was no more than -4.2; for C8U A138G, no more than -4.2.

Turning to U9A A30C G59U C69U U90C U104C G133U, the “polymerase ribozyme fitness (log ratio)” value was no more than -4.2.

Consider U9G A12G A23C A30C G42A A52C C85A, for which the “polymerase ribozyme fitness (log ratio)” value was no more than -4.2. In the case of U9C C10G C43U C85A U90G U109G U135C, the “polymerase ribozyme fitness (log ratio)” value was no more than -4.2. Turning to U9G A73G U77G C131G, the “polymerase ribozyme fitness (log ratio)” value was no more than -4.2. C8U A21U G59A A107U C149U: the “polymerase ribozyme fitness (log ratio)” value was no more than -4.2.

U9G A19U A52G U56A G68U C87A U145G: the “polymerase ribozyme fitness (log ratio)” value is no more than -4.2. Consider U9G A17G G83A C85G C114G C131A U144G, for which the “polymerase ribozyme fitness (log ratio)” value is no more than -4.2. For U9A C36G A91G C95A the value was no more than -4.2.
